PubChem BioAssay AID485294 (National Center for Advancing Translational Sciences (NCATS), 2010)
Among all 370,000 compounds or so, about 150 (0.041%) were called active. This list was built around the results that the source calls inconclusive (neither active nor inactive); the mix of calls is not that of the screen. Calls come from the whole dose curve; as a rule, active = well fitted inhibition curve with a large enough effect; inconclusive = small, poorly fitted or top-dose-only effect; inactive = flat fitted curve, though single readings scatter. No potency is given beside an inconclusive call; the fits are too rough.

Biological target: Beta-lactamase (Escherichia coli (strain K12)) (UniProt P00811)
Test: qHTS Inhibitors of AmpC Beta-Lactamase (assay with detergent); note: nearly all actives have a fitted effect of over 25% in size
Conditions: AmpC hydrolysis of nitrocefin, absorbance 480 nm, 0.01% Triton; series mostly up to 114 µM
Outline: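 20 mM phosphate pH 7.0 + 0.01% (detergent screen) or 0.0001% Triton X-100; 5.3 nM AmpC reagent; cpd preinc 15 min RT; nitrocefin (800 uM stock) to start; A480 q20 s × 4 min; Activity was normalised to no-enzyme and no-compound control wells.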
Potency is the fitted concentration of half-maximal effect; tags give direction and shape of the fitted curve.

UniProt P00811, sequence (P00811 whole entry, looked up): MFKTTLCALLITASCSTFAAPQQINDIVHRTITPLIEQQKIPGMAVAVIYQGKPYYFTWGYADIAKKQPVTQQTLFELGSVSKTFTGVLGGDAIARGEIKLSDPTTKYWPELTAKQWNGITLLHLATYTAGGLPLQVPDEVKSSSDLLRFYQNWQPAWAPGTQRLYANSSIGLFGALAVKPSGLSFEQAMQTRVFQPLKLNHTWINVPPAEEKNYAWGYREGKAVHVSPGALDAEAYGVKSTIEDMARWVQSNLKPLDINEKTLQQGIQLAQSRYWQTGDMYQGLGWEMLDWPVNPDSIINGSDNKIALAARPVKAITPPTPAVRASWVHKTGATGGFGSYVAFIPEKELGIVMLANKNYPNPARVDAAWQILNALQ

SMILES	Potency
CC(=O)C1C(c2ccc(Cl)cc2)NC(=O)NC1(O)C(F)(F)F (stereo not given)	inconclusive [inhibitor, full curve]
COc1ccccc1C(=O)Nc1ccnn1C1CCN(C)CC1	inactive
Cc1ccc2cc(C#N)c(N3CCCN(S(=O)(=O)c4ccc(F)cc4)CC3)nc2c1	inconclusive [inhibitor, single point]
COC(=O)CCC(=O)Nc1ccc(S(=O)(=O)N2CCc3ccccc32)cc1	inconclusive [inhibitor, partial curve]
Cc1ccc(N(CC(=O)N(C)Cc2ccccc2)S(C)(=O)=O)cc1C	inconclusive [inhibitor, full curve]
COc1ccc(/C(O)=C2/C(=O)C(=O)N(CCN3CCNCC3)C2c2cccc([N+](=O)[O-])c2)cc1 (stereo not given)	inactive
Cc1nc(=O)c(-c2ccccc2)c(C)n1-c1cccc(/C=C/C(=O)O)c1	inconclusive [inhibitor, single point]
O=C(O)CC(NC(=O)OCc1ccccc1)c1ccccc1 (stereo not given)	inconclusive [inhibitor, partial curve]
C/C(CC(=O)Nc1ccc(N(C)C)cc1)=N\NC(=O)c1ccc(F)cc1	inconclusive [inhibitor, partial curve, poor fit]
COCCn1c(=S)[nH]c2cc(C(=O)N3CCN(Cc4ccc5c(c4)OCO5)CC3)ccc2c1=O	inactive
COc1ccc(N=C2C(=O)Nc3ccccc32)cc1	inconclusive [inhibitor, full curve, poor fit]
CCCCc1cc(=O)oc2cc(C)cc(OC(C)C(=O)O)c12 (stereo not given)	inconclusive [inhibitor, full curve, poor fit]
COC(=O)c1nn(-c2ccc(OC)cc2)c(=O)cc1O	inactive
Cc1ccc(N(CC(=O)NC2CCCC2)C(=O)c2c(C)noc2C)cc1C	inconclusive [inhibitor, full curve]
O=C(Nc1ccsc1C(=O)N1CCCC1)c1ccccc1	inconclusive [inhibitor, full curve, poor fit]
CC1CN(S(=O)(=O)c2cccc3nsnc23)CC(C)O1 (stereo not given)	inconclusive [inhibitor, single point]
Cc1ccc(-n2c(SCC(=O)Nc3cccc(S(=O)(=O)NC4=NCCCCC4)c3)nc3ccccc3c2=O)cc1	inactive
CC(=O)OC(C)(C)/C=C/C(=O)[C@](C)(O)[C@H]1[C@H](O)C[C@@]2(C)[C@@H]3CC=C4[C@H](C[C@H](O)C(=O)C4(C)C)[C@]3(C)C(=O)C[C@]12C	inconclusive [inhibitor, full curve, poor fit]
COc1ccc(-n2nc3cc(N)c(Br)cc3n2)cc1	inconclusive [inhibitor, partial curve, poor fit]
CC(C)CNC(=O)c1c(N)n(/N=C/c2cccnc2)c2nc3ccccc3nc12	inconclusive [inhibitor, partial curve, poor fit]
Cc1cc(C)c(C#N)c(SCS(=O)Cc2ccccc2)n1 (stereo not given)	inconclusive [inhibitor, single point]
CC(C)OCCCNC(=O)C1CC(=O)N(CCc2ccc(F)cc2)C1 (stereo not given)	inconclusive [inhibitor, full curve, poor fit]

SMILES	Potency
CCOc1ccc(CCNC(=O)CS(=O)(=O)Cc2nc(-c3ccc(OC)cc3)oc2C)cc1	inconclusive [inhibitor, full curve, poor fit]
COc1cccc(OCCn2cc(C=O)c3ccccc32)c1	inconclusive [inhibitor, full curve, poor fit]
Cc1cccc2sc(NC(=O)c3ccc(Cl)s3)nc12	inconclusive [inhibitor, full curve]
COc1ccc(-c2ccnc(SCC(=O)c3ccc(OC)c(OC)c3)n2)cc1	inconclusive [inhibitor, partial curve]
O=c1cc(-c2cccc3ccccc23)[nH][nH]1	inconclusive [inhibitor, partial curve, poor fit]
O=C1NC(=O)N(c2ccccc2)C(=O)/C1=C\c1ccccc1[N+](=O)[O-]	inactive
CCc1nc2ccc(C(=O)NCc3cc(OC)ccc3OC)cc2nc1CC	inactive
CNC(=O)c1ccsc1NC(=O)CCS(=O)(=O)c1ccc(Cl)cc1	inconclusive [inhibitor, partial curve, poor fit]
S=c1[nH]nc(COc2ccccc2)n1/N=C/c1ccncc1	inconclusive [inhibitor, full curve, poor fit]
O=C(Nc1ccccc1Cc1ccccc1)c1ccccc1NS(=O)(=O)c1ccc(Cl)s1	inconclusive [inhibitor, single point]
Cc1ccc(-c2ccc(=O)n(CCC(=O)N3CCN(c4cccc(C)c4)C(C)C3)n2)cc1 (stereo not given)	inactive
COc1ccc(CN2CCn3nc(C(=O)NC(C)C)cc3C2=O)cc1	inactive
Cc1ccccc1NC(=O)CSc1nnc(-c2ccco2)n1N	inconclusive [inhibitor, full curve, poor fit]
COc1ccc(-c2csc(NC(=O)C3=COCCO3)n2)c(OC)c1	inconclusive [inhibitor, full curve, poor fit]
c1csc(-c2cc(N3CCCCC3)c3ccccc3n2)c1	inactive
COC(=O)[C@@H]1CC[C@H](C)[C@@H](c2ccc(C)cc2)N1C(=O)c1ccc(/C=N/O[C@H](C)c2cn([C@@H]3COC[C@H]3O)nn2)cc1	inconclusive [inhibitor, full curve, poor fit]
COc1ccc(CN2C(=O)CN(C3CCCCCC3)C(=O)C2c2ccc(F)cc2)cc1 (stereo not given)	inconclusive [inhibitor, partial curve]
Clc1cccc2sc(N3CCCCC3)nc12	inactive
CN1C(=O)C(C)(C)c2cc(S(=O)(=O)N3CCCC3C(=O)NCc3ccccc3Cl)ccc21 (stereo not given)	inconclusive [inhibitor, full curve]
CCOC(=O)N1CCN(CC(=O)c2ccc(O)cc2O)CC1	inconclusive [inhibitor, partial curve]
Cn1c(COc2ccccc2)nnc1SCCSc1nnc(COc2ccccc2)n1C	inconclusive [inhibitor, full curve]
Cn1c2ccccc2c2nn(-c3ccccc3)c(=O)cc21	inconclusive [inhibitor, partial curve, poor fit]

SMILES	Potency
Cc1ccccc1NC(=O)CSc1nc2ccccc2c2nc(CCn3cncc3C)nn12	inconclusive [inhibitor, full curve, poor fit]
Cc1cccc(S(=O)(=O)N2CCn3cccc3C2C)c1 (stereo not given)	inactive
O=C(NC(=S)NC(c1ccccc1)c1ccncc1)c1ccccc1 (stereo not given)	inactive
CCNc1ccc(C(=O)O)cc1N	inconclusive [inhibitor, full curve, poor fit]
Cc1ccc2[nH]c(=O)c(CN(Cc3ccc4c(c3)OCO4)Cc3nnnn3C3CCCC3)cc2c1	inconclusive [inhibitor, full curve, poor fit]
O=C(CCC1CCN(Cc2ccccc2O)CC1)NC1CC1	inconclusive [inhibitor, full curve]
COc1ccc(Cl)cc1S(=O)(=O)NCc1ccc2c(c1)CCN2C(=O)c1cccc(C)c1	inactive
CCN1CCN(c2ccc(S(=O)(=O)N3CCOCC3)cc2NC(=O)/C=C/c2ccc(OC)cc2OC)CC1	inactive
O=C(O)c1ccc(S(=O)(=O)N(Cc2ccccc2)Cc2ccccc2)cc1	inactive
Cc1[nH]nc2c1C(C1CC=CCC1)C(C#N)=C(N)O2 (stereo not given)	inactive
CN(c1ccccc1)S(=O)(=O)c1cccc(NC(=O)c2cccc(C#N)c2)c1	inconclusive [inhibitor, full curve, poor fit]
COc1cc(C(=O)NC2CC3CCCC(C2)N3CC(=O)Nc2ccccc2)cc(OC)c1OC (stereo not given)	inconclusive [inhibitor, full curve, poor fit]
Cc1ccc(C(C)C)c(OCC(O)CN2CCN(c3ccccc3F)CC2)c1 (stereo not given)	inactive
Cc1ccc(NC(=O)CCC(=O)N2Cc3ccccc3Oc3ncccc32)c(C)c1	inactive
COc1ccc([C@@H]2CC=C(C(=O)O)[C@H](c3ccccc3F)N2S(=O)(=O)c2ccccc2C)cc1	inconclusive [inhibitor, single point]
O=C(NCCc1ccccc1)C1CCC(CNS(=O)(=O)c2cccc3cccnc23)CC1 (stereo not given)	inactive
O=C(Nc1ccccc1F)c1ccc(COc2ccc(Cl)cc2Cl)o1	inactive
COc1cccc(N2C(=O)C3CCCN3C2c2ccc(N(C)C)cc2)c1 (stereo not given)	inconclusive [inhibitor, full curve, poor fit]
COc1cc(CNc2ncn[nH]2)cc(Br)c1OC	inconclusive [inhibitor, partial curve, poor fit]
CCCCNC(=O)Nc1ccccc1C(=O)NCc1ccco1	inconclusive [inhibitor, full curve, poor fit]
CC(=O)O[C@H]1CC(=O)OC(C)(C)C2CC(=O)[C@]3(C)C(CC[C@@](C)([C@@H](O[C@@H]4O[C@H](CO)[C@@H](O)[C@H](O)[C@H]4O)c4ccoc4)[C@@]34O[C@@H]4C(=O)O)[C@]21C (stereo not given in full)	inconclusive [inhibitor, full curve]
